One data set addresses E. coli MenE (ecMenE) (Escherichia coli, UniProt P37353). The data set can be described thus: MenE-MenB coupled assay (enzyme inhibition, catalytic parameters).

As a reminder, the IC50 is the concentration needed to halve the response being measured. For orientation: pKa means the pH at which an ionisable group is half protonated. A lower pKa goes with a stronger acid or weaker base.

Chain of E. coli MenE (ecMenE) (P37353 whole entry): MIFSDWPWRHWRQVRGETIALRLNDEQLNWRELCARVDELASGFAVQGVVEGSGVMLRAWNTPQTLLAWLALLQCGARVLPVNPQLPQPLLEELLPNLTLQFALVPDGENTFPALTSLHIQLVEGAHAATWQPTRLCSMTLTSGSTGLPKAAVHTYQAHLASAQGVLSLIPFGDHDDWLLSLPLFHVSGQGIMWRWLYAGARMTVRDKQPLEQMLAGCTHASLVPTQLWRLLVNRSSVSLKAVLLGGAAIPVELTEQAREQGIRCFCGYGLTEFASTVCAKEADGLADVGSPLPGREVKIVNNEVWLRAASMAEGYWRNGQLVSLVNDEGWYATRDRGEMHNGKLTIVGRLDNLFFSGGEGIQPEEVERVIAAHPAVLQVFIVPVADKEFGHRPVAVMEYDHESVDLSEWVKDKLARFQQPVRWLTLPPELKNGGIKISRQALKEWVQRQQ

Compound `Nc1ncnc2c1ncn2[C@@H]1O[C@H](COS(=O)(=O)NC(=O)CCC(=O)c2ccccc2[N+](=O)[O-])[C@@H](O)[C@H]1O` [Compound 103, 5′-O—(N-[4-(2-Nitrophenyl)-4-oxobutanoyl]sulfamoyl)adenosine] gave an IC50 against E. coli MenE (ecMenE) of over 100 µM. For the compound `Nc1ncnc2c1ncn2[C@@H]1O[C@H](COS(=O)(=O)NC(=O)CCC(=O)c2ccccc2B(O)O)[C@@H](O)[C@H]1O` [Compound 139, 5′-O—(N-[4-(2-Boronophenyl)-4-oxobutanoyl]sulfamoyl)adenosine], the pKa in “physchem” is over 14. This compound gave an IC50 on E. coli MenE (ecMenE) of over 100 µM.

Consider `Nc1ncnc2c1ncn2[C@@H]1O[C@H](COS(=O)(=O)NC(=O)CCC(=O)c2ccccc2-c2cnco2)[C@@H](O)[C@H]1O` [Compound 104, 5′-O—(N-[4-(2-(5-Oxazolyl)phenyl)-4-oxobutanoyl]sulfamoyl)adenosine], for which the concentration for half-maximal inhibition (IC50) against E. coli MenE (ecMenE) was over 100 µM.

`Nc1ncnc2c1ncn2[C@@H]1O[C@H](COS(=O)(=O)NC(=O)CCC(=O)c2cccc(C(=O)O)c2)[C@@H](O)[C@H]1O` [Compound 102, 5′-O—(N-[4″-(3′″-(Carboxyl)phenyl)-4″-oxobutanoyl]sulfamoyl)adenosine]: the pKa in “physchem” was determined as 4. For the same compound, at E. coli MenE (ecMenE), the IC50 was over 100 µM. Consider `Nc1ncnc2c1ncn2[C@@H]1O[C@H](COS(=O)(=O)NC(=O)CCC(O)c2ccccc2C(O)C(F)(F)F)[C@@H](O)[C@H]1O` (some centres unmarked) [Compound 144], for which the pKa in the data set “physchem” was 11.5. Besides, at E. coli MenE (ecMenE), the IC50 was over 100 µM.

(Values after US20180273573A1, “INHIBITORS OF MENAQUINONE BIOSYNTHESIS” (Memorial Sloan-Kettering Cancer Center, priority 2015, published 2018).)
